Test results: the supplement of paper PMC10126150
Values marked as one replicate rest on one cluster of the flow cell; about a third of the high ones do not repeat.

System: ATP
Assay: switch fluorescence ratio, 500 uM ATP over buffer (Cy3 cluster intensity, sum of 5 cycles each) (fold (ratio)); higher = stronger signal-on switching upon ATP binding; sequences stand for … in TCGTCGGCAGCGTCAGATGTGTATAAGAGACAGTTTTTTTTTTTTTTTTTTTTTTTTT…TC
Details: aptamer strand: ATP DNA aptamer (quencher-CACCTGGGGGAGTATTGCGGAGGAAGG + anchor), 100 nM annealed; ATP concentration: 500 uM; one replicate
Outline: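 Five buffer/ATP imaging cycles were run on Cy3-labelled switching-strand clusters on a modified Illumina MiSeq flow-cell, with NaOH stripping and re-annealing between cycles. In each cycle, clusters annealed to 100 nM quencher-labelled ATP aptamer were imaged in selection buffer, then after 15 min with 500 uM ATP at 22 °C. Per cluster, the fluorescence ratio is summed target-cycle over summed buffer-cycle Cy3 intensity, averaged per switch-domain sequence. Only clusters within 100-1000 RFU were kept.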
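Also: ATP exposure 15 min at 22 °C before imaging.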

Sequence	switch fluorescence ratio
TGGTTTATGC	1.02
TTCCGATCAG	2.05
TTCGGTGTAG	1.04
TAATTGGGCG	0.983
AGGATTTTGG	1.01
GTTGATGTTC	0.993
AAGATTCGTT	0.984
TACTGTCGGT	0.999
TGTACCAGGG	1.08
CCGCACTTA	3.8
TCGAGCTCTT	0.979
CTTGTGTAAT	0.993
TCGCCAAACC	1.2
GTATATAAGC	1.05
CGCATCTTTC	1.34
CTGGTAAAGT	0.958
TAAGACTCA	1.04
GAGACTGGGG	0.996
CTGTGAGGG	0.951
GAGGAAGCTT	1.02
CATCAAGAGC	1.09
CCGGGGATTT	1.08
TCATCTTGTG	1.02

Sequence	switch fluorescence ratio
CCTTGACCAC	1.1
TGCGGAATC	1.63
TGTAATTTGG	1.01
GAGAATAACG	0.991
TCATAGTTG	1.02
ATCAAAACAG	1.04
ACTATTCAAG	1.02
TAGAAAGGAC	1.84
TGCACGGAGC	1.09
CCAGGGAAGC	1.03
AAAGGCATTG	1.01
GCACCCGTGT	1
AGGCTTAGCT	0.971
GGAGGAATTC	1.31
GTTGATGATG	0.995
CATCATCTCG	0.972
TCAGAACCAT	1.07
CTTAGTTCAT	1.01
GGCAACTCGG	0.95
ATGTAACGGA	0.994
GTATCTGTGG	0.968
TTTTGATG	1.04
TAAGACACTT	1.04

Sequence	switch fluorescence ratio
CCATGCAGTG	1.05
CACCAACCCC	1.19
ACCCCAAAGG	1.1
TGACATCTTT	1.04
TGTTTCTTTG	0.997
GAGACCCTTC	1
TTTCCATGGC	0.991
GGTTCGCT	1
AGTGTTCTTT	0.984
GCTGCGAGCT	1.05
GGTCCGAGGG	1.04
CTCACTTATT	1.31
CCGTTAAAGT	1.03
GCTCGGCCCT	0.98
CTTCGGCGAG	1.04
CCGGTTCTTA	1.01
GATTCCGCC	2.37
TCGTGCGCCC	1.47
CTGTTTTACG	1
ACGCCACAAA	1.53
TACGGCC	1.08
GGATGTTGGG	0.997
GCACGGGATA	1.05

Sequence	switch fluorescence ratio
TTGCGCTGAG	1.02
CGAATGGGTC	0.947
GACTAGAGAT	0.954
TCAGAAGGT	0.998
GGATCGCGGT	1.06
AAGTCCATGG	0.998
AAGAAGGGA	0.997
TTTTCGCACA	1.44
TCGCCGGTTT	1.03
GATTCTGCAC	1.15
GAATTACGGT	1.05
AGTGCTTTGG	1.03
AGGGGTAGAA	0.972
CTGTGTGCGT	0.993
TGACGAGAGC	1.06
ACTTACGACG	1.79
TGGAAGCGGA	1.01
GCGTCGTTGC	1.03
GACCGTCAAG	0.984
AGGGTGTCT	1.01
GCTAAATTTG	1.02
ATTGGGATCT	0.964
ACGAATAGAA	1.03

Sequence	switch fluorescence ratio
GGCATTTATG	1.04
GCCACGCCG	1.2
TATAATGGGG	0.983
CTCAATCCGG	1.03
CATGTCAACA	0.963
GGCTTACACG	0.984
TAACACATCA	0.992
TCGCAATTTT	4.03
ATAACCTAAA	1.02
GGGCCAGGCC	1.01
CGGTAATTAA	1.01
CAGGCGAATG	0.974
TGTTCAGAGC	0.978
TGAGCTCGGG	1
TTAGTTCCGG	1.03
TGCTAATGAG	0.977
TTGGGCGCCG	0.999
CAAGGAGCTA	0.984
TGAGGCGAAA	1.04
CATCGAGTTG	1
CTGTAAACAA	2.57
GTATGGGTTG	1.03
TTTATTTACC	1.06

Sequence	switch fluorescence ratio
GACTATACTA	1.23
ATCATTAGAT	1.02
CTGAAGCGTC	1.19
AAGATTGTGC	1
CATCGGACCT	1.42
AGCTAGATAT	1.03
CCAAACGGCC	1.01
GTAGAGCGAA	1.03
TGCTTGTGTC	1.03
TTGACACCTA	1.02
TAAAACATCG	0.972
TGGTGAGTTG	0.985
TCACTGATGA	1.05
CGGTCCAGAA	1.01
AGAATAGAGC	0.956
GGCAAACCG	1.03
CATCGTTGGA	1.01
TACCCTACAA	1.28
CCGCGCCTTG	1.25
GCTGTCGGAT	1
GTATTTCTAT	0.98
TTTAGTATGC	1.02
CTGACTTATA	1.04

Sequence	switch fluorescence ratio
TGACGAGCAG	1.04
GCGCTACACT	1.28
CGGTCGCCCA	1.02
CGTTAACGAG	0.988
TTCAATAGAC	1.1
GGTAGTTAGA	0.985
CCTATAAGGC	1.08
GGTATGGAGA	0.968
GAGATCTTCG	1.05
TGGTCGCCGG	0.953
GGTGTATCCA	0.998
GCCTCGCCGG	1
TTCTCAGT	1.01
TGCTTTGTAT	1.01
GTATTAGCAA	1.14
TTGGTTATTC	1
TGGAGGGTAT	0.982
CGAACAATAA	1.67
CACTAAGTCC	1.06
